Measurements: patent publication US20170037106A1 (FLOREY INSTITUTE OF NEUROSCIENCE AND MENTAL HEALTH, published 2017)
Results are given in words; binding and its absence hold for the method and conditions named. Some results given as binding are weak or reduced against the parent protein; the word gives no strength. For some assays here: Where a sequence is shown, tags or fusion partners need not be part of it.

T1: 7BP: fusion protein comprising the extracellular domain of RXFP1 and the transmembrane domain of CD8, on cells (UniProt Q9HBX9)
T1 sequence (looked up): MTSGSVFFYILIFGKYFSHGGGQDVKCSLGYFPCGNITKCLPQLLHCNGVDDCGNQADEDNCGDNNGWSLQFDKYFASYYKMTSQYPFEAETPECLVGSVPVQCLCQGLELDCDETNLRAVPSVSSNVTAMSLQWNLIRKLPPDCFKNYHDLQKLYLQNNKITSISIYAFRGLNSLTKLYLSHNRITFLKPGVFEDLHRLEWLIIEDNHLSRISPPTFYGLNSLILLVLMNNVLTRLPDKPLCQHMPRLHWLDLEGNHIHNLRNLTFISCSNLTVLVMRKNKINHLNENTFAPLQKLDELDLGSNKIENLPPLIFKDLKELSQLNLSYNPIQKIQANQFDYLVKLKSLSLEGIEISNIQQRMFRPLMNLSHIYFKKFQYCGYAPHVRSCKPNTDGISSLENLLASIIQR

T2: RXFP1 (LGR7) receptor, on stably transfected HEK-293T cells (UniProt Q9HBX9)
T2 sequence (looked up): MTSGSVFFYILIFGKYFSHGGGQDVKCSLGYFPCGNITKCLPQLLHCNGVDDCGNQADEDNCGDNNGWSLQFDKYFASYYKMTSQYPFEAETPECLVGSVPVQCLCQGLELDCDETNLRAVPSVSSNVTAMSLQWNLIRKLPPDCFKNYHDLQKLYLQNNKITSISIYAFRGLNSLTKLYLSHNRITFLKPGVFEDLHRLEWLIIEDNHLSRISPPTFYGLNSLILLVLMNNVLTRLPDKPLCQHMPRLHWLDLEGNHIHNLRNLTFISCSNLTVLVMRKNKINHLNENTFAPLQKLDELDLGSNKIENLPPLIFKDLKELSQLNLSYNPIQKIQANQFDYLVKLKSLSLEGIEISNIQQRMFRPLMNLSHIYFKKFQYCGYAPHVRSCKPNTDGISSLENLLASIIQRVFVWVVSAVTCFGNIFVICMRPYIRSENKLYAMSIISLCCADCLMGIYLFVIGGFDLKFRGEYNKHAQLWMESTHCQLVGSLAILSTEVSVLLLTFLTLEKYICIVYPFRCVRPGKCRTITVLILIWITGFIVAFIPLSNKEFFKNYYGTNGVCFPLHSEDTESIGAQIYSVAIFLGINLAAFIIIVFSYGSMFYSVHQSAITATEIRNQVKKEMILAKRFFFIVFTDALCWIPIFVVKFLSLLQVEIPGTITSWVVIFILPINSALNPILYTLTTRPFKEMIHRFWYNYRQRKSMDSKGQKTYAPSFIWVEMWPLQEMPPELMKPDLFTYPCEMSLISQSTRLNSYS

B1: Modified B7-33 (B7-33 C11.23S) (peptide)
peptide: VIKLSGRELVRAQIAISGMSTWSKRSL
modifications: C-terminal amide (-NH2)
B2: AcB7-33 C11.23S (peptide)
peptide: VIKLSGRELVRAQIAISGMSTWSKRSL
modifications: N-terminal acetyl (Ac-); C-terminal amide (-NH2)
B3: R13A (AcB7-33 C11.23S) (peptide)
peptide: VIKLSGAELVRAQIAISGMSTWSKRSL
modifications: N-terminal acetyl (Ac-); C-terminal amide (-NH2)
B4: R17A (AcB7-33 C11.23S) (peptide)
peptide: VIKLSGRELVAAQIAISGMSTWSKRSL
modifications: N-terminal acetyl (Ac-); C-terminal amide (-NH2)
B5: R13/17A I20A (AcB7-33 C11.23S) (peptide)
peptide: VIKLSGAELVAAQAAISGMSTWSKRSL
modifications: N-terminal acetyl (Ac-); C-terminal amide (-NH2)
B6: KKKK (AcB7-29 C11.23S) (peptide)
peptide: VIKLSGRELVRAQIAISGMSTWSKKKK
modifications: N-terminal acetyl (Ac-); C-terminal amide (-NH2)
B7: B1-29 C11.23S (peptide)
peptide: DSWMEEVIKLSGRELVRAQIAISGMSTWS
modifications: C-terminal amide (-NH2)
B8: B7-29 C11.23S (peptide)
peptide: VIKLSGRELVRAQIAISGMSTWS
modifications: C-terminal amide (-NH2)
B9: B7-33 C11.23S R17K (peptide)
peptide: VIKLSGRELVKAQIAISGMSTWSKRSL
modifications: C-terminal amide (-NH2)
B10: I20A (AcB7-33 C11.23S) (peptide)
peptide: VIKLSGRELVRAQAAISGMSTWSKRSL
modifications: N-terminal acetyl (Ac-); C-terminal amide (-NH2)

Target: T1, 7BP: fusion protein comprising the extracellular domain of RXFP1 and the transmembrane domain of CD8, on cells
Assay: Eu-H2 relaxin competition on 7BP cells

Binder	binding
B1	binds
B2	binds
B3	binds
B4	binds
B5	binds
B6	binds

Target: T2, RXFP1 (LGR7) receptor, on stably transfected HEK-293T cells
Assay: Eu-H2 relaxin competition, whole HEK-293T cells stably expressing RXFP1

Binder	binding
B1	binds
B7	no binding (tested: pKi <5 (log M))
B8	no binding (tested: pKi <5 (log M))
B9	no binding (tested: pKi <5 (log M))
B10	no binding (tested: pKi <5 (log M))
